The whole screen tested about 310,000 compounds, of which about 2,200 (0.71%) showed an effect of 50% or more. Effects have a minus sign here. The list shows a part of the results.
Target: human ether-à-go-go-related gene (hERG) potassium channel (human, UniProt Q12809)
Experiment: primary screen, population patch clamp on CHO cells stably expressing hERG

human ether-à-go-go-related gene (hERG) potassium channel, sequence (Q12809 whole entry, looked up): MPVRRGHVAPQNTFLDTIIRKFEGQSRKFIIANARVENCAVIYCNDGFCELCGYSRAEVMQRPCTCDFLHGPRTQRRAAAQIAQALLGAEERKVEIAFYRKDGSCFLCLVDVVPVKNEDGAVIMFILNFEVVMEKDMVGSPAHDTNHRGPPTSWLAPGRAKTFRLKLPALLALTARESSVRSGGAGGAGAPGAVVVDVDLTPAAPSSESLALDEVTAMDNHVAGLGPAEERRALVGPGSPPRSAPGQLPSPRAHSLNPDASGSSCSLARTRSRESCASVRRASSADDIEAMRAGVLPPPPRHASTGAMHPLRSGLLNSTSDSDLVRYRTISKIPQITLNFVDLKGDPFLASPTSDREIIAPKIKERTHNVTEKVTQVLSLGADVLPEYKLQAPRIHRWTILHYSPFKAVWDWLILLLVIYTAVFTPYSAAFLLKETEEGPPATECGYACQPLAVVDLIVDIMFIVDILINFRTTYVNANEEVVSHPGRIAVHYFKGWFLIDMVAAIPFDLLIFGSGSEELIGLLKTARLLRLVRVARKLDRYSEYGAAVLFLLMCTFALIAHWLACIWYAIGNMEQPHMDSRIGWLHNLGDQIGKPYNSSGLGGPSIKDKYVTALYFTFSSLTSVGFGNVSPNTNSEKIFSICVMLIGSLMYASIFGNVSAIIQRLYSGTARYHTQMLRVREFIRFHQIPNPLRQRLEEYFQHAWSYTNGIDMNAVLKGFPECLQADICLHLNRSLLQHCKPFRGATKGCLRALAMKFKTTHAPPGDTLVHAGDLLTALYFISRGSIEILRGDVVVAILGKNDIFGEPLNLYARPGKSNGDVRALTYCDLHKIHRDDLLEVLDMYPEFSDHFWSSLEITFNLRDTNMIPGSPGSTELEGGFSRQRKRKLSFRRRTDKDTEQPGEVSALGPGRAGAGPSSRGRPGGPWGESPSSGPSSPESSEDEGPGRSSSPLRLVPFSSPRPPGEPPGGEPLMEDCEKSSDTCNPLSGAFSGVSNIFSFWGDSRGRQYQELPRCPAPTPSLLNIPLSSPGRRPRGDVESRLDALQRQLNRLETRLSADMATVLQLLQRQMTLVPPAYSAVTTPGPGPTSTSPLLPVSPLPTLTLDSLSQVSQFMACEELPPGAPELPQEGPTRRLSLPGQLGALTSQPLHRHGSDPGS

| Compound | hERG current change (%, negative = inhibition) at 1uM |
| --- | --- |
| Cc1ccc(NC(=O)c2ccc(NCCc3ccccc3)c([N+](=O)[O-])c2)cc1F | 8.08% |
| O=C(CSc1nncn1-c1ccccc1F)NC1CCCCC1 | 4.85% |
| CSCCC(NC(=O)COc1ccccc1)C(=O)N(C)Cc1cccc(F)c1 (stereo not shown) | 7.07% |
| O=C(/C=C/c1ccc(F)cc1)N1CCCN(C(=O)/C=C/c2ccc(F)cc2)CC1 | -84.7% |
| COc1ccc(OC)c(NC(=O)CN2C(=O)NC3(CCCc4ccccc43)C2=O)c1 (stereo not shown) | 6.31% |
| O=C(C1=C(O)C(=O)N(CCN2CCOCC2)C1c1cccc(F)c1)c1cc2ccccc2o1 (stereo not shown) | 9.08% |
| COc1ccc(/C(N)=N/OC(=O)c2ccc(Br)o2)cc1 | 13.6% |
| Cn1c(Cn2nnc3ccccc32)nnc1SCC(=O)c1ccccc1F | 0.528% |
| Cc1cc(S(=O)(=O)N2CCOCC2)ccc1OCC(=O)Nc1ccccc1C(F)(F)F | 12.3% |
| CCNC(=O)N1C(=O)C2(OCCO2)c2cc(Br)ccc21 | 17% |
| CCCCSCCCNC(=O)c1ccc(CS(=O)(=O)c2ccccc2OC)o1 | 4.94% |
| O=C(O)c1ccc2c(c1)C(=O)N(c1ccc(Nc3ccccc3)cc1)C2=O | 12.7% |
| Cc1cc2oc(=O)cc(CN3CCOCC3)c2cc1O | 3.59% |
| CC(C)(C)NS(=O)(=O)CC12CCC(CC1=O)C2(C)C (stereo not shown) | 9.92% |
| CCN(CC)S(=O)(=O)c1ccc(N/N=C(\C)c2cccnc2)nc1 | 5.53% |
| FC(F)(F)c1cc(-c2cccs2)nc2cc(-c3ccccc3)nn12 | 0.818% |
| O=C(N/N=C/c1ccoc1)c1ccc(Cl)cc1Cl | 14.5% |
| Cc1ccc(Oc2cc(NC(=O)CCCn3nc([N+](=O)[O-])cc3C)cc([N+](=O)[O-])c2)cc1 | 13.4% |
| CC(C)(CNC(=O)c1ccc(-c2ccccc2Cl)o1)N1CCOCC1 | -5.93% |
| CCC(=O)Nc1cccc(NC(=O)CSc2nnc(C(C)C)n2CC)c1 | -3.14% |
| CCCc1[nH]nc2c1C(c1ccc(OC)c(Cn3nnc4ccccc43)c1)C(C#N)=C(N)O2 (stereo not shown) | 3.53% |
| COc1ccc(Oc2ccc(/C=N/NC(=O)c3cccnc3)cc2[N+](=O)[O-])cc1 | 9.93% |

| Compound | hERG current change (%, negative = inhibition) at 1uM |
| --- | --- |
| CCCn1c(NCc2ccc(N(C)C)cc2)nc2ccccc21 | -14% |
| O=C(Nc1ccccc1)NC1CCCCCCC1 | 5.86% |
| O=[N+]([O-])c1ccc(O)c(/C=N/n2c(-c3ccccc3)n[nH]c2=S)c1 | 18.6% |
| CCCc1cc(=O)n2c(nc3ccccc32)[nH]1 | 16.1% |
| Cc1ccc(C2/C(=C(\O)c3c(C)nc4ccccn34)C(=O)C(=O)N2CCN(C)C)o1 (stereo not shown) | 5.74% |
| O=C(Cn1cnc2ccccc21)NC(c1ccccc1)c1ccccc1 | 8.43% |
| CN(C)CC1CCCCC1OC(=O)c1ccc(Cl)cc1Cl.Cl (stereo not shown) | -11.9% |
| COc1ccc2nc(SCC(=O)Nc3ccc4sc(C)nc4c3)c(C#N)cc2c1 | 14.7% |
| Cc1cc(C)n(Cc2ccc(NC(=O)c3nn(C)cc3[N+](=O)[O-])cc2)n1 | 5.95% |
| O=C1/C(=C/c2ccc(F)c(F)c2)CSc2sccc21 | 9.32% |
| Cc1ccc(S(=O)(=O)c2nc(S(=O)(=O)c3ccccc3)sc2N2CCN(C)CC2)cc1 | -2.65% |
| Cc1cc2oc3c(c(=O)c2cc1C)C(c1cccc(Br)c1)N(Cc1ccco1)C3=O (stereo not shown) | 15.4% |
| O=C(CSc1ccccc1)Nc1ccc(S(=O)(=O)Nc2ncccn2)cc1 | -2.53% |
| Cc1cc(NC(=O)c2ccno2)no1 | 5.82% |
| NC(=O)/C(=N\OC(=O)c1ccco1)c1nc(-c2ccc(Br)cc2)cs1 | 2.53% |
| CCOC(=O)C1=C(C)NC(C)=C(C(=O)OCC)C1C(=O)OCC(=O)N1CCc2ccccc2C1 | 10.9% |
| Cc1ccc(-n2c(=O)c3c4c(sc3n(Cc3cc(=O)n5ccccc5n3)c2=O)CCC4)cc1C | -1.08% |
| COc1ccc(-c2nc3c(c(SCC(=O)N4CCOCC4)n2)COC(C)(C)C3)cc1 | 0.065% |
| Nc1nonc1-n1nnc(C(=O)c2ccccc2)c1-c1ccccc1 | 11.9% |
| Cc1c(Cl)cccc1NC(=S)Nc1ccccn1 | 8.87% |
| O=C(Nc1ccc(F)c(Cl)c1)c1ccccc1 | 17% |

From paper PMC4336329 (PLoS ONE, 2015)
